# Laboratory results from the supplement of paper PMC3334620.
# In all, about 33,000 sequences were measured (“E-score (-0.5 to 0.5)”: median about -0.016, highest 2% from about 0.32 on). The list shows a part of the results.
# Biological target: T1, Stp1 (UniProt B3LFK1)
# T1 sequence: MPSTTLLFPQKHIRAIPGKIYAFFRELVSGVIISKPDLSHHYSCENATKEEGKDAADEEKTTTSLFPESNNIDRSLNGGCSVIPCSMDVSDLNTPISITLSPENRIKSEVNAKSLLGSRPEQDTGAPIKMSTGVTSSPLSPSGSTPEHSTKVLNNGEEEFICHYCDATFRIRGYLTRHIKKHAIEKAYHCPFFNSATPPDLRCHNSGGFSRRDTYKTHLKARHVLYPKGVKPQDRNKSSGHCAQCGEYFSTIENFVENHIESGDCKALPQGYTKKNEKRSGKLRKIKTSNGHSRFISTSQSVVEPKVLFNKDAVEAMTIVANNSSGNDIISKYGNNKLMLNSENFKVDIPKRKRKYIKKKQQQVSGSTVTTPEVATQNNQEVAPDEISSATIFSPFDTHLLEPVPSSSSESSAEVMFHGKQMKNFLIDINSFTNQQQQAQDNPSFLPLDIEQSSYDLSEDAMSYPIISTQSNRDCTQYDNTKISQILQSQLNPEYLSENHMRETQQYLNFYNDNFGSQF
# Experiment: PBM E-score (8-mer binding enrichment) (E-score (-0.5 to 0.5)); higher = stronger / more preferred TF binding; most listed sequences are background and not binding sites
# Conditions: protein concentration: 200 nM; construct: GST-full length
# Outline: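 The E-score, a modified Wilcoxon-Mann-Whitney statistic, was computed by the Universal PBM Analysis Suite for every ungapped eight-base word pooled with its reverse complement. Scans behind it were normalised with masliner after bound GST-tagged yeast transcription factors were detected with fluorescent anti-GST. The proteins, at about 100-200 nM, had been applied to universal all-10-mer Agilent arrays made double-stranded by primer extension.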
row,Sequence,PBM E-score
1,AGCTCGAG,-0.232
2,CGTATACG,0.115
3,AACTAGAC,0.153
4,AAGTCGGA,-0.0439
5,AATCAGAT,0.103
6,GAAGGAAC,-0.0401
7,TGCCGCCA,0.229
8,ACCAATCG,0.0932
9,GTTCCAAC,0.127
10,ACTCGCTG,0.0353
11,ACCTCAGG,-0.247
12,AGAATGAC,-0.0818
13,CTCGCCAG,-0.165
14,CACCCGGC,-0.0619
15,GTCCGGAC,-0.0989
16,CAGTCTTC,-0.154
17,AAGTGAAT,0.212
18,TAGTTACA,-0.013
19,CAGAGGCG,0.028
20,AAGAGTTG,-0.0322
21,AGTATGCA,-0.0421
22,GCGGACAA,0.127

row,Sequence,PBM E-score
1,CTCTACCA,-0.0433
2,AGTAGTGA,-0.0104
3,AGAGGGAT,-0.214
4,GGCTATCA,0.0642
5,AGGGAGGG,-0.237
6,CACTCGAA,0.0341
7,AGGAATTA,-0.063
8,CGATCAAA,-0.121
9,TAACCGCA,0.0745
10,CCTCCCCG,-0.0218
11,AAGAAGTC,-0.0393
12,AGAAGAGA,-0.0256
13,ATTTTTCA,0.116
14,ATGCTTGG,-0.142
15,CTACGAGA,-0.132
16,ATCGATCC,-0.111
17,CATGCGCG,-0.0347
18,AACTTCCC,-0.172
19,GCGACCGA,0.0544
20,CAGTTTCG,-0.00824
21,CTTCTGTA,0.0992
22,GGGTTAAA,-0.226

row,Sequence,PBM E-score
1,AATGGAGC,0.046
2,GGTCCGAC,-0.164
3,ATCATGGA,-0.201
4,AACGCACA,-0.0113
5,GCCGCGGC,0.474
6,CGAGCAGA,-0.21
7,CGAGAAAG,-0.0578
8,AAGTTTGC,0.0668
9,CGCTCTGC,-0.0351
10,AACTCGTA,0.00375
11,CATAGCGG,-0.26
12,ATTTCCTC,0.0188
13,TCGCACGA,-0.0503
14,GGGACTCA,-0.215
15,CCGAGGGA,-0.209
16,GGTGACAC,-0.148
17,AGGCGCCA,0.353
18,CGGGCCCC,-0.122
19,CAGATTCG,-0.0223
20,CCAGACCC,-0.314
21,ACCAGATG,-0.146
22,AAAAACTT,0.145

row,Sequence,PBM E-score
1,AATAAAAG,0.0874
2,CCAAGTCA,-0.138
3,TCAAGACA,-0.0772
4,AGTTTGGC,0.051
5,CCTGCTCC,0.0227
6,AATCATGA,0.199
7,CTCGAAAC,0.113
8,CAGCTCCA,-0.234
9,AATACAAG,0.0957
10,CCGCCCCC,-0.238
11,CAGCGGGC,-0.0556
12,CAAACAGG,-0.0496
13,CTAATTTC,0.162
14,GCGATAGC,-0.0161
15,TAGAGAAA,0.0678
16,CAAATACA,0.0678
17,CTGTGGGA,-0.223
18,GCTTCATA,0.0285
19,AAGCAAAA,0.135
20,CACACGGG,0.235
